Here are results for 40 sequences from the supplement of paper PMC7826260.

Some of the results follow. Cleavage of a single-stranded DNA pool by Rep nickase domains was read by sequencing at 3 µM enzyme and 37 °C for 1 h; the strands have 90 letters, of which the middle is given. The score is log2 (uncut reads / reads without enzyme); the lower, the more was cut; hits are not called. Counts are relative to all reads, so uncut sequences can rise above 0 when many others are cut.

The test system of one assay is T1, Rep nickase domain of porcine circovirus 2.
T1 sequence (Rep 2-116, printed without the tag): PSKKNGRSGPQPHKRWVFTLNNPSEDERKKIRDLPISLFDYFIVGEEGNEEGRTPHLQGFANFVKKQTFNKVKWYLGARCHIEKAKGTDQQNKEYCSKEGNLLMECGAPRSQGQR
As to the kind of experiment: uncleaved DNA left, log2 of reads against the no-enzyme library (log2 ratio); higher = less cleavage (more negative = more Rep cleavage of the k-mer); sequences stand for … in CTCGTCCG…ACCGGAGA
The protocol: (§1)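 A pool of 90-nt single-stranded DNAs with seven random bases just before the constant AC of the nick site (name = the seven bases) was cut by 3 µM recombinant His6-SUMO-tagged Rep nickase domain (300 nM DNA, 50 mM HEPES pH 8.0, 50 mM NaCl, 1 mM MnCl2, 1 h, 37 °C, three replicates). Uncut DNA was amplified and sequenced.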
Take GTCAACA: the “uncleaved DNA left (log2)” value is 0.0488.

With ACTGTGT, the “uncleaved DNA left (log2)” value is -0.177.

Take GTCGACC: the “uncleaved DNA left (log2)” value is -0.0324.

As for TTCTTCC, the “uncleaved DNA left (log2)” value is -0.00724.

As for AACAAGT, the “uncleaved DNA left (log2)” value is -1.17.

Take GCATGAG: the “uncleaved DNA left (log2)” value is 0.165.

ATTCACA: the “uncleaved DNA left (log2)” value is -0.209.

Turning to GAACCAC, the “uncleaved DNA left (log2)” value is -0.246.

As for AGATGGC, the “uncleaved DNA left (log2)” value was -0.0223.

Regarding GTGCAAT, the “uncleaved DNA left (log2)” value is 0.0821.

Consider CCCTCAG, for which the “uncleaved DNA left (log2)” value was found to be 0.0564.

In the case of GTGGATA, the “uncleaved DNA left (log2)” value was 0.197.

With CTAACTA, the “uncleaved DNA left (log2)” value is -0.0716.

Consider AACTTGC, for which the “uncleaved DNA left (log2)” value is -0.000745.

Take AGTTCTA: the “uncleaved DNA left (log2)” value was -0.914.

On to GTGGTTT, for which the “uncleaved DNA left (log2)” value was -0.0443.

As for CGGGACG, the “uncleaved DNA left (log2)” value was 0.275.

Take AACACTC: the “uncleaved DNA left (log2)” value was 0.0285.

As to TGCGCCG, the “uncleaved DNA left (log2)” value is -0.0154.

For CCATCTA, the “uncleaved DNA left (log2)” value was -0.0213.

In the case of TAACTGT, the “uncleaved DNA left (log2)” value was -0.0668.

Take GGGCACA: the “uncleaved DNA left (log2)” value worked out at 0.286.

CCTAGCT: the “uncleaved DNA left (log2)” value is 0.113.

In the case of TGGAAGG, the “uncleaved DNA left (log2)” value worked out at 0.182.

On to CTCACAA, for which the “uncleaved DNA left (log2)” value was 0.112.

In the case of CGAGATC, the “uncleaved DNA left (log2)” value was determined as 0.121.

For TGATTAA, the “uncleaved DNA left (log2)” value amounted to 0.0403.

As for GTAAAGC, the “uncleaved DNA left (log2)” value was 0.0746.

Turning to TGCTACG, the “uncleaved DNA left (log2)” value is -0.301.

As for GATCGTC, the “uncleaved DNA left (log2)” value is 0.174.

As to TGTAATG, the “uncleaved DNA left (log2)” value came to 0.153.

For CCATGGA, the “uncleaved DNA left (log2)” value came out at 0.12.

In the case of ATACGCA, the “uncleaved DNA left (log2)” value amounted to 0.0341.

Consider ATGACCA, for which the “uncleaved DNA left (log2)” value is -0.0337.

In the case of CTCGATT, the “uncleaved DNA left (log2)” value is -2.35.

AACCATA: the “uncleaved DNA left (log2)” value was -0.433.

On to CCGGAGA, for which the “uncleaved DNA left (log2)” value was -0.0985.

For the sequence GGCGCTA, the “uncleaved DNA left (log2)” value is 0.105.

Consider ATTTAGC, for which the “uncleaved DNA left (log2)” value came out at 0.159.

On to CTGTATG, for which the “uncleaved DNA left (log2)” value is -0.00939.

The next assay has as its system T2, Rep nickase domain of tomato yellow leaf curl virus.
T2 sequence (Rep 1-136, printed without the tag): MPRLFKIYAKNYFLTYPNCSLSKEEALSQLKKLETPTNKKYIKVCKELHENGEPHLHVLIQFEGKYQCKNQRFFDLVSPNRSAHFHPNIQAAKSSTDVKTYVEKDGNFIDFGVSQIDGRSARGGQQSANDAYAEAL
The assay is described as above. As for the experimental part:
as §1
In the case of GTCAACA, the “uncleaved DNA left (log2)” value worked out at 0.066.

As to ACTGTGT, the “uncleaved DNA left (log2)” value is -0.0374.

Turning to GTCGACC, the “uncleaved DNA left (log2)” value was 0.16.

For the sequence TTCTTCC, the “uncleaved DNA left (log2)” value is 0.0777.

Turning to AACAAGT, the “uncleaved DNA left (log2)” value turned out to be 0.06.

Take GCATGAG: the “uncleaved DNA left (log2)” value worked out at 0.109.

With ATTCACA, the “uncleaved DNA left (log2)” value turned out to be 0.0871.

As for GAACCAC, the “uncleaved DNA left (log2)” value was 0.0321.

In the case of AGATGGC, the “uncleaved DNA left (log2)” value is -0.0309.

With GTGCAAT, the “uncleaved DNA left (log2)” value is 0.0986.

Take CCCTCAG: the “uncleaved DNA left (log2)” value was -0.111.

Turning to GTGGATA, the “uncleaved DNA left (log2)” value came to 0.0143.

For CTAACTA, the “uncleaved DNA left (log2)” value is 0.0997.

As for AACTTGC, the “uncleaved DNA left (log2)” value was determined as 0.0319.

As to AGTTCTA, the “uncleaved DNA left (log2)” value turned out to be 0.112.

Regarding GTGGTTT, the “uncleaved DNA left (log2)” value was -0.0912.

Consider CGGGACG, for which the “uncleaved DNA left (log2)” value came out at 0.0821.

In the case of AACACTC, the “uncleaved DNA left (log2)” value is -0.0834.

On to TGCGCCG, for which the “uncleaved DNA left (log2)” value was -0.144.

For the sequence CCATCTA, the “uncleaved DNA left (log2)” value worked out at 0.0756.

Take TAACTGT: the “uncleaved DNA left (log2)” value was determined as 0.0292.

In the case of GGGCACA, the “uncleaved DNA left (log2)” value stood at 0.0909.

Take CCTAGCT: the “uncleaved DNA left (log2)” value is -0.0518.

With TGGAAGG, the “uncleaved DNA left (log2)” value came to 0.0695.

Regarding CTCACAA, the “uncleaved DNA left (log2)” value was found to be 0.0295.

As to CGAGATC, the “uncleaved DNA left (log2)” value was found to be 0.00139.

Regarding TGATTAA, the “uncleaved DNA left (log2)” value was 0.0962.

In the case of GTAAAGC, the “uncleaved DNA left (log2)” value came to 0.0998.

For TGCTACG, the “uncleaved DNA left (log2)” value was -0.19.

With GATCGTC, the “uncleaved DNA left (log2)” value was determined as 0.0498.

Regarding TGTAATG, the “uncleaved DNA left (log2)” value stood at 0.0665.

Consider CCATGGA, for which the “uncleaved DNA left (log2)” value turned out to be 0.0891.

As for ATACGCA, the “uncleaved DNA left (log2)” value is 0.0255.

For the sequence ATGACCA, the “uncleaved DNA left (log2)” value was -0.0907.

Consider CTCGATT, for which the “uncleaved DNA left (log2)” value is -0.0361.

Turning to AACCATA, the “uncleaved DNA left (log2)” value was -0.0357.

For the sequence CCGGAGA, the “uncleaved DNA left (log2)” value is -0.0601.

Regarding GGCGCTA, the “uncleaved DNA left (log2)” value is -0.0744.

For ATTTAGC, the “uncleaved DNA left (log2)” value was determined as 0.0506.

In the case of CTGTATG, the “uncleaved DNA left (log2)” value was -0.0992.

In the next assay the test system is T3, Rep nickase domain of wheat dwarf virus.
T3 sequence (Rep 1-137, printed without the tag): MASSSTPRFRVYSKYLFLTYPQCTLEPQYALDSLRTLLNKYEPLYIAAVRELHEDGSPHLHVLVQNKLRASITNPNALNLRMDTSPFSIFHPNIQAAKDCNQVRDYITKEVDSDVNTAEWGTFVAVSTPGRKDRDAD
Described as above. As for the experimental part: as §1
For GTCAACA, the “uncleaved DNA left (log2)” value stood at 0.0597.

In the case of ACTGTGT, the “uncleaved DNA left (log2)” value was -0.0448.

Take GTCGACC: the “uncleaved DNA left (log2)” value was determined as 0.0544.

TTCTTCC: the “uncleaved DNA left (log2)” value stood at 0.0212.

For the sequence AACAAGT, the “uncleaved DNA left (log2)” value is 0.0949.

In the case of GCATGAG, the “uncleaved DNA left (log2)” value is -0.0002.

On to ATTCACA, for which the “uncleaved DNA left (log2)” value worked out at 0.0137.

As for GAACCAC, the “uncleaved DNA left (log2)” value was 0.116.

As to AGATGGC, the “uncleaved DNA left (log2)” value was -0.126.

As to GTGCAAT, the “uncleaved DNA left (log2)” value amounted to 0.0353.

Take CCCTCAG: the “uncleaved DNA left (log2)” value is -0.161.

For the sequence GTGGATA, the “uncleaved DNA left (log2)” value was -0.00964.

As for CTAACTA, the “uncleaved DNA left (log2)” value was 0.0384.

For AACTTGC, the “uncleaved DNA left (log2)” value was -0.104.

With AGTTCTA, the “uncleaved DNA left (log2)” value came to 0.0131.

With GTGGTTT, the “uncleaved DNA left (log2)” value is -0.139.

As to CGGGACG, the “uncleaved DNA left (log2)” value turned out to be 0.134.

Take AACACTC: the “uncleaved DNA left (log2)” value is 0.0235.

For TGCGCCG, the “uncleaved DNA left (log2)” value was -0.122.

On to CCATCTA, for which the “uncleaved DNA left (log2)” value amounted to 0.0123.

As for TAACTGT, the “uncleaved DNA left (log2)” value is -0.282.

Take GGGCACA: the “uncleaved DNA left (log2)” value stood at 0.0214.

On to CCTAGCT, for which the “uncleaved DNA left (log2)” value is -0.0329.

Take TGGAAGG: the “uncleaved DNA left (log2)” value came out at 0.182.

CTCACAA: the “uncleaved DNA left (log2)” value is 0.212.

With CGAGATC, the “uncleaved DNA left (log2)” value came out at 0.105.

On to TGATTAA, for which the “uncleaved DNA left (log2)” value amounted to 0.103.

For the sequence GTAAAGC, the “uncleaved DNA left (log2)” value is -0.0121.

Turning to TGCTACG, the “uncleaved DNA left (log2)” value was -0.248.

For the sequence GATCGTC, the “uncleaved DNA left (log2)” value was 0.0284.

In the case of TGTAATG, the “uncleaved DNA left (log2)” value is 0.0151.

Turning to CCATGGA, the “uncleaved DNA left (log2)” value was determined as 0.119.

In the case of ATACGCA, the “uncleaved DNA left (log2)” value was -0.0416.

On to ATGACCA, for which the “uncleaved DNA left (log2)” value stood at 0.0964.

Regarding CTCGATT, the “uncleaved DNA left (log2)” value is 0.109.

AACCATA: the “uncleaved DNA left (log2)” value is -0.0133.

Regarding CCGGAGA, the “uncleaved DNA left (log2)” value is -0.141.

Regarding GGCGCTA, the “uncleaved DNA left (log2)” value amounted to 0.176.

In the case of ATTTAGC, the “uncleaved DNA left (log2)” value stood at 0.00261.

Take CTGTATG: the “uncleaved DNA left (log2)” value was -0.137.
